Results reported in paper PMC6983858.
No constants are given. Whether binding was seen depends on the method and setting. For some assays here: In cells and extracts the contact can be indirect. Some entries that bind do so weakly or less than the wild type. Values belong to the substance of their own block, whether it stands above or below them.

Tests used:
[1] = biological target: FLAG-tagged neurofibromin ABC domain expressed in NF1-null HEK293T cells (human) (UniProt P21359); assay: co-IP; HA- and FLAG-tagged NF1 domains co-expressed in NF1-null HEK293T cells; anti-FLAG M2 affinity gel, blots with anti-HA and anti-FLAG
[2] = biological target: HA- or FLAG-tagged neurofibromin CDEF domain expressed in NF1-null HEK293 cells (human) (UniProt P21359); assay: as above
[3] = biological target: HA- or FLAG-tagged neurofibromin DEF domain expressed in NF1-null HEK293 cells (human) (UniProt P21359); assay: as above
[4] = biological target: HA- or FLAG-tagged neurofibromin ABCD domain expressed in NF1-null HEK293T cells (human) (UniProt P21359); assay: as above
[5] = biological target: full-length neurofibromin, FLAG- or V5-tagged, expressed in HEK293T cells (human) (UniProt P21359); assay: co-IP; FLAG- and V5-tagged full-length NF1 co-transfected into HEK293T cells; anti-FLAG M2 affinity gel, blots with anti-FLAG and anti-V5
[6] = biological target: neurofibromin ABC fragment (2–1540) (human) (UniProt P21359); assay: SEC-MALS; single purified proteins; Superose-6 Increase or Superdex S-200 10/300 GL, Wyatt Heleos and Optilab T-Rex; BSA as standard; both purified
[7] = biological target: neurofibromin ABC fragment (2–1540) (human) (UniProt P21359); assay: negative-stain EM; proteins diluted to 0.01 mg/ml in 20 mM Tris-Cl pH 8.0, 300 mM NaCl, 5 mM TCEP, stained with uranyl formate; 2D class averages and 3D reconstruction; both purified
[8] = biological target: neurofibromin ABC fragment (2–1540) (human) (UniProt P21359); assay: AUC; sedimentation velocity of ABC or DEF alone at several concentrations, 50,000 rpm, 20 °C, 300 mM NaCl, 20 mM Tris-HCl pH 8.5, 5 mM TCEP; both purified
[9] = biological target: T1, neurofibromin EF fragment (1821–2818) (human) (UniProt P21359); assay: SEC; reconstitution from purified ABCD and EF, data not shown; both purified
T1 sequence: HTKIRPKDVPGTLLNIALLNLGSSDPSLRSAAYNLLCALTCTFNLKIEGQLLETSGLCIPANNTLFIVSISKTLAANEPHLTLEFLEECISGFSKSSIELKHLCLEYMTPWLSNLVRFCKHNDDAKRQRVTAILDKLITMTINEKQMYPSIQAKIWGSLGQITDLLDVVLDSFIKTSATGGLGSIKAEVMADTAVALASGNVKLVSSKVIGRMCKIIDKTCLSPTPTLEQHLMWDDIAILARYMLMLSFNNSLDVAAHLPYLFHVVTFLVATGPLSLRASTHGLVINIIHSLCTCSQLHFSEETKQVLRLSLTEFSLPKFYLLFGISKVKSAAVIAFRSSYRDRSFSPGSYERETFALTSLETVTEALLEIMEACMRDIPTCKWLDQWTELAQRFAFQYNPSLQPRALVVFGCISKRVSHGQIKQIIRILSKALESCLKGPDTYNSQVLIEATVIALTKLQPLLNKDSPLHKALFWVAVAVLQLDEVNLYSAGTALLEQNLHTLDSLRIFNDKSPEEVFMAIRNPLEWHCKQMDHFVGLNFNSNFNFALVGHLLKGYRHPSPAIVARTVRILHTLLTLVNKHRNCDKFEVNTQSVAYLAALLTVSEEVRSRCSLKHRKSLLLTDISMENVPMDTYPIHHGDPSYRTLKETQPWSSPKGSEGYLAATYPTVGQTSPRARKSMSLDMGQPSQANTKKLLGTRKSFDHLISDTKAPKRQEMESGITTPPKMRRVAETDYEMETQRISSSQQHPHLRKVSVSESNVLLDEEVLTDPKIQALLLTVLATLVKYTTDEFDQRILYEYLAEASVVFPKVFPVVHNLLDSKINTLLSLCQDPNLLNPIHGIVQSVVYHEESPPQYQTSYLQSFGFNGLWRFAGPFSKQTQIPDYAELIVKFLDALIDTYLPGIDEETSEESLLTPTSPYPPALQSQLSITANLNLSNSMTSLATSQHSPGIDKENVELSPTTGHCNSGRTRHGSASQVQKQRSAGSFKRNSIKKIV

[10] = biological target: neurofibromin DEF fragment (1541–2818) (human) (UniProt P21359); assay: SEC-MALS; single purified proteins; Superose-6 Increase or Superdex S-200 10/300 GL, Wyatt Heleos and Optilab T-Rex; BSA as standard; both purified
[11] = biological target: neurofibromin DEF fragment (1541–2818) (human) (UniProt P21359); assay: AUC; sedimentation velocity of ABC or DEF alone at several concentrations, 50,000 rpm, 20 °C, 300 mM NaCl, 20 mM Tris-HCl pH 8.5, 5 mM TCEP; both purified

- binding [1]: no binding
Substance: HA- or FLAG-tagged neurofibromin ABCD domain expressed in NF1-null HEK293T cells (from UniProt P21359-2 2-1820) (domain or fragment)

- binding [2]: binds
- binding [3]: binds
- binding [1]: binds
- binding [4]: binds
Substance: HA- or FLAG-tagged neurofibromin CDEF domain expressed in NF1-null HEK293 cells (from UniProt P21359-2 861-2818) (domain or fragment)

- binding [1]: binds
- binding [4]: binds
Substance: HA- or FLAG-tagged neurofibromin DEF domain expressed in NF1-null HEK293 cells (from UniProt P21359-2 1541-2818) (domain or fragment)

- binding [5]: binds
Substance: full-length neurofibromin, FLAG- or V5-tagged, expressed in HEK293T cells (from UniProt P21359-2 1-2818)

- binding [6]: no binding
- binding [7]: no binding (tested: 0.01 mg/ml)
Substance: neurofibromin ABC fragment (2–1540) (from UniProt P21359-2 2-1540) (domain or fragment)
- binding [8]: no binding (tested: 1.1 μM, 2.2 μM and 4.5 μM)

- binding [9]: binds
Substance: neurofibromin ABCD fragment (2–1820) (from UniProt P21359-2 2-1820) (domain or fragment)

- binding [10]: binds weakly
- binding [11]: binds weakly
Substance: neurofibromin DEF fragment (1541–2818) (from UniProt P21359-2 1541-2818) (domain or fragment)
